These results are taken from publication PMC7819943, “Rice protein-binding microarrays: a tool to detect cis-acting elements near promoter regions in rice”.

Some of the results follow.

The target in this assay is T1, OsWOX13 (Oryza sativa, UniProt Q5QMM3 1-267).
T1 sequence: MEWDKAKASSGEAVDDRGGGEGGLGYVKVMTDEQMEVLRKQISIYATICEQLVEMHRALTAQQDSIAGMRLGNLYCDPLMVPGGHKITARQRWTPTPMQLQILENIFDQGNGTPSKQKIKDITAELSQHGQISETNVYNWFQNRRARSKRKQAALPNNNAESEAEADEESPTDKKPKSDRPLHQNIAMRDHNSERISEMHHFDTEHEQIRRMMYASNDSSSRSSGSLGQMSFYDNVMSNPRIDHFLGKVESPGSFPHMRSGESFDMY
The assay can be described thus: protein-binding microarray (RPBM); PBS, 2% BSA, 51.3 ng/ul salmon testes DNA, 50 uM zinc acetate, 200 nM TF, 25 C, 1 h; high values mean tight binding. As to conditions: protein: recombinant; tags: N-terminal polyhistidine and DsRed monomer fusion (pET32a); label: CyDye5-dUTP incorporated in the synthesized complementary strand; 3' TTTTT single-stranded linker to array surface; dsDNA, one strand shown. In short, it runs like this:
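Per-feature fluorescence intensity (arbitrary units), read on an Axon 4000B scanner, is the binding signal. Transcription factors carrying an N-terminal polyhistidine tag and DsRed fusion were expressed in E. coli BL21-CodonPlus and purified on Ni–NTA. A custom Agilent array, made double-stranded by primer extension with Cy5-dUTP and blocked with 2% BSA, was incubated with 200 nM protein in PBS, 2% BSA, salmon testes DNA and 50 µM zinc acetate at 25 °C for 1 h and then washed.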
On to “CAACAATACAGTTATTGGTAATTACAAGCTACTAGTATACCGGAGTCACCTAGTGCAG”, for which the binding signal was 7790 fluorescence intensity (a.u.).

“TTCTGAAGATTGGTTGAGACAGCATAAACAAGTTATATTCCGGAGTCACCTAGTGCAG”: the binding signal was 14500 fluorescence intensity (a.u.).

For “TTAATTAGCATCAGCACCATCTAGCCATGTATGCAAACCCCGGAGTCACCTAGTGCAG”, the binding signal is 6230 fluorescence intensity (a.u.).

In the case of “ATCTCCATGATTTGATAATTAATATAATGCTACAGTAAACCGGAGTCACCTAGTGCAG”, the binding signal is 27900 fluorescence intensity (a.u.).

For the sequence “GTATTAAATTTAAGAAAGCCATTAAGATGATAAGTTGTTGCGGAGTCACCTAGTGCAG”, the binding signal is 5080 fluorescence intensity (a.u.).

Regarding “CACGCTTATAATTATTTCTTAAACAAATGTTTGGAGGGACCGGAGTCACCTAGTGCAG”, the binding signal was 10200 fluorescence intensity (a.u.).

Take “GAATTTAATATCGGATGTGATTGTAACATATTCTAGTACTCGGAGTCACCTAGTGCAG”: the binding signal was 5270 fluorescence intensity (a.u.).

Turning to “GTAAACTGATAATGTAATATTGAAGCAATGCTAATCCCTTCGGAGTCACCTAGTGCAG”, the binding signal was 8810 fluorescence intensity (a.u.).

For “ACCTAATTGGAATTCCCGTTACAATCCAGAACTATTGAATCGGAGTCACCTAGTGCAG”, the binding signal was 44000 fluorescence intensity (a.u.).

In the case of “TGTCATTGTCCAAAACGTCAATTAAAATGAAACAGGAGGGCGGAGTCACCTAGTGCAG”, the binding signal is 3960 fluorescence intensity (a.u.).

As to “CTTCTTGATTGATTTATACTAACTGCGCACACACTTTATTCGGAGTCACCTAGTGCAG”, the binding signal is 55200 fluorescence intensity (a.u.).

On to “ACATTAACAGAAATTACGTTAAAAGCATCTCAAAATCAACCGGAGTCACCTAGTGCAG”, for which the binding signal was 14600 fluorescence intensity (a.u.).

Regarding “AAGAGATAAAATTTGATCCAATCATGCATGCGTTTGGTGGCGGAGTCACCTAGTGCAG”, the binding signal is 8400 fluorescence intensity (a.u.).

Consider “GTGCAAATCATTTAAAATCTTGAAGCATGCCTGATCATGCCGGAGTCACCTAGTGCAG”, for which the binding signal is 9160 fluorescence intensity (a.u.).

For the sequence “CCAACAGTAATTAAATGCAGATAAACAGAGATGAAATGGACGGAGTCACCTAGTGCAG”, the binding signal was 10500 fluorescence intensity (a.u.).

For “TGAGATTGTGGACTAATGGACCGCTGCTTTGGAAGTTAGTCGGAGTCACCTAGTGCAG”, the binding signal is 6590 fluorescence intensity (a.u.).

Take “AAAATTTATACAATAATCCAAATGGATAGAAATTGAATTCCGGAGTCACCTAGTGCAG”: the binding signal was 5680 fluorescence intensity (a.u.).

As to “CATATGATATTTGCTAATCAATAGCGGACAAGCCATCTCTCGGAGTCACCTAGTGCAG”, the binding signal was 6800 fluorescence intensity (a.u.).

Consider “AAGATCAATGATGGATCCAATCATCCAATATACAAACGGACGGAGTCACCTAGTGCAG”, for which the binding signal is 29600 fluorescence intensity (a.u.).

In the case of “AATAATGAGATCAATTGGAACTTGCACCATTGTTTATTTTCGGAGTCACCTAGTGCAG”, the binding signal is 3920 fluorescence intensity (a.u.).

On to “ATCTGATGAGATGCATGTAGATATTATACTGACGATTCGTCGGAGTCACCTAGTGCAG”, for which the binding signal is 3550 fluorescence intensity (a.u.).

Regarding “CTAAAACTGAACATCTTTAATTACAGCTATTACTCTGTTCCGGAGTCACCTAGTGCAG”, the binding signal was 6750 fluorescence intensity (a.u.).

“GCATGACAGCATGTGACAGGGTTTACAAAACTGAACGCCCCGGAGTCACCTAGTGCAG”: the binding signal is 14100 fluorescence intensity (a.u.).

Regarding “CCATATAGATTGGCATCTTATAGAGCATGAAAGAGAATGCCGGAGTCACCTAGTGCAG”, the binding signal is 13500 fluorescence intensity (a.u.).

On to “AGGATCTAATATCAAATAATTAGAATGGGTGAGGTTTCAACGGAGTCACCTAGTGCAG”, for which the binding signal is 4180 fluorescence intensity (a.u.).

Turning to “TTACTAATTGGTGAAATCCCATATTGATAACATATATTCACGGAGTCACCTAGTGCAG”, the binding signal was 33100 fluorescence intensity (a.u.).

On to “AGGTAGTGCTTGATTTATAGTGTTTATGGTGAAGAAATTTCGGAGTCACCTAGTGCAG”, for which the binding signal was 3510 fluorescence intensity (a.u.).

Turning to “GTTCACGTTGACTGCATCTGTCACTTGTGCTGGTTTCTGTCGGAGTCACCTAGTGCAG”, the binding signal is 4360 fluorescence intensity (a.u.).

Take “TTCACTTGAATTAATTGATGATGTGTAATGACATGACTAGCGGAGTCACCTAGTGCAG”: the binding signal is 26700 fluorescence intensity (a.u.).

Take “ATAATTGTTTGACCTAATTAGGGAAATGAACAGCAGTAAACGGAGTCACCTAGTGCAG”: the binding signal is 34100 fluorescence intensity (a.u.).

In the case of “GTATCTAATCAAATTATTGCCATTGCAGGTTCGACTTATGCGGAGTCACCTAGTGCAG”, the binding signal is 14200 fluorescence intensity (a.u.).

Regarding “TTGGATTGAGGGAGTATAATTCTTAAACCTAGCAATTAGCCGGAGTCACCTAGTGCAG”, the binding signal was 11500 fluorescence intensity (a.u.).

Turning to “CGAGATTGATTAGGACTCGGAATCGATCGGAGTCGGAGTACGGAGTCACCTAGTGCAG”, the binding signal is 54800 fluorescence intensity (a.u.).

Take “TTTTATCTCACCAATCAATTTAATTTCTTTATTTATTTTCCGGAGTCACCTAGTGCAG”: the binding signal was 6870 fluorescence intensity (a.u.).

As for “CAAAATTGAAGTCTTGACCCTACCAAACTCCGCCATTCTTCGGAGTCACCTAGTGCAG”, the binding signal is 8730 fluorescence intensity (a.u.).

With “TGTTGGTCCGTCTCCGAGTTGTTTCCCTATTTGGGCCTTCCGGAGTCACCTAGTGCAG”, the binding signal was 5110 fluorescence intensity (a.u.).

As to “TCAATAAATTTGTGTTTTATGTTTCTATTGGTGTTAGTAGCGGAGTCACCTAGTGCAG”, the binding signal was 16200 fluorescence intensity (a.u.).

For the sequence “TTGATTATCCTTCGGCGACTAGCTAACTCTAAATGGAACTCGGAGTCACCTAGTGCAG”, the binding signal is 3230 fluorescence intensity (a.u.).

“ACACATAAATTATTAATCATGTTTTATCATCTAACAACAACGGAGTCACCTAGTGCAG”: the binding signal is 14100 fluorescence intensity (a.u.).

Regarding “AATAGATTAATAGACATAACACAGTGCGGCAATTCAATCACGGAGTCACCTAGTGCAG”, the binding signal is 21400 fluorescence intensity (a.u.).

As to “ATATATAATCAATTAAATATTAACTATTAAAGATTTGAAACGGAGTCACCTAGTGCAG”, the binding signal is 6080 fluorescence intensity (a.u.).

For “GAAATAAATTATAGATATAATTACTATATGCTTACATGTTCGGAGTCACCTAGTGCAG”, the binding signal was 32900 fluorescence intensity (a.u.).
